Residue numbers refer to the chain shown, from its start. The list shows a part of the results.
T1: RBFOX1 RRM RbFoxmut (Fox-RRM*) (Homo sapiens, UniProt Q9NWB1 109-208, R118D;E147R;N151S;E152T)
T1 sequence: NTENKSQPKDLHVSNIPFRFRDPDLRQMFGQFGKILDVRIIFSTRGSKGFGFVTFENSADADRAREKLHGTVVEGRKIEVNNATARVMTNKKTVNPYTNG

B1: UAGAAAA (DNA:RNA)
RNA: GGGAGACCGGAAUUCAGAUUGUCCUAGAAAAUUAAAUCCCGUCGUAGCCACCA
DNA 1: CAATCTGAATTCCGGTCTCCC
DNA 2: TGGTGGCTACGACGGGATT
B2: CGACGAU (DNA:RNA)
RNA: B1 RNA with U25C, A26G, G27A, A28C, A29G, A31U
DNA 1: CAATCTGAATTCCGGTCTCCC
DNA 2: TGGTGGCTACGACGGGATT
B3: CAAAACA (DNA:RNA)
RNA: B1 RNA with U25C, G27A, A30C
DNA 1: CAATCTGAATTCCGGTCTCCC
DNA 2: TGGTGGCTACGACGGGATT
B4: CGGGUAU (DNA:RNA)
RNA: B1 RNA with U25C, A26G, A28G, A29U, A31U
DNA 1: CAATCTGAATTCCGGTCTCCC
DNA 2: TGGTGGCTACGACGGGATT
B5: AACGCAA (DNA:RNA)
RNA: B1 RNA with U25A, G27C, A28G, A29C
DNA 1: CAATCTGAATTCCGGTCTCCC
DNA 2: TGGTGGCTACGACGGGATT
B6: CAGCGAA (DNA:RNA)
RNA: B1 RNA with U25C, A28C, A29G
DNA 1: CAATCTGAATTCCGGTCTCCC
DNA 2: TGGTGGCTACGACGGGATT
B7: UGCCCAG (DNA:RNA)
RNA: B1 RNA with A26G, G27C, A28C, A29C, A31G
DNA 1: CAATCTGAATTCCGGTCTCCC
DNA 2: TGGTGGCTACGACGGGATT
B8: CCGAAUG (DNA:RNA)
RNA: B1 RNA with U25C, A26C, A30U, A31G
DNA 1: CAATCTGAATTCCGGTCTCCC
DNA 2: TGGTGGCTACGACGGGATT
B9: GUCCUCC (DNA:RNA)
RNA: GGGAGACCGGAAUUCAGAUUGUCCGUCCUCCUUAAAUCCCGUCGUAGCCACCA
DNA 1: CAATCTGAATTCCGGTCTCCC
DNA 2: TGGTGGCTACGACGGGATT
B10: AGUCCAA (DNA:RNA)
RNA: B1 RNA with U25A, A26G, G27U, A28C, A29C
DNA 1: CAATCTGAATTCCGGTCTCCC
DNA 2: TGGTGGCTACGACGGGATT
B11: UGUGCAG (DNA:RNA)
RNA: B1 RNA with A26G, G27U, A28G, A29C, A31G
DNA 1: CAATCTGAATTCCGGTCTCCC
DNA 2: TGGTGGCTACGACGGGATT
B12: CCAGCGU (DNA:RNA)
RNA: GGGAGACCGGAAUUCAGAUUGUCCCCAGCGUUUAAAUCCCGUCGUAGCCACCA
DNA 1: CAATCTGAATTCCGGTCTCCC
DNA 2: TGGTGGCTACGACGGGATT
B13: UUUUACG (DNA:RNA)
RNA: B9 RNA with G25U, C27U, C28U, U29A, C31G
DNA 1: CAATCTGAATTCCGGTCTCCC
DNA 2: TGGTGGCTACGACGGGATT
B14: ACGGGGC (DNA:RNA)
RNA: B12 RNA with C25A, A27G, C29G, U31C
DNA 1: CAATCTGAATTCCGGTCTCCC
DNA 2: TGGTGGCTACGACGGGATT
B15: UUGAAGC (DNA:RNA)
RNA: B1 RNA with A26U, A30G, A31C
DNA 1: CAATCTGAATTCCGGTCTCCC
DNA 2: TGGTGGCTACGACGGGATT
B16: ACUCUUC (DNA:RNA)
RNA: B9 RNA with G25A, U26C, C27U, C30U
DNA 1: CAATCTGAATTCCGGTCTCCC
DNA 2: TGGTGGCTACGACGGGATT
B17: CACGCUC (DNA:RNA)
RNA: B12 RNA with C26A, A27C, G30U, U31C
DNA 1: CAATCTGAATTCCGGTCTCCC
DNA 2: TGGTGGCTACGACGGGATT
B18: CUGCGAA (DNA:RNA)
RNA: B1 RNA with U25C, A26U, A28C, A29G
DNA 1: CAATCTGAATTCCGGTCTCCC
DNA 2: TGGTGGCTACGACGGGATT
B19: CUGUAAA (DNA:RNA)
RNA: B1 RNA with U25C, A26U, A28U
DNA 1: CAATCTGAATTCCGGTCTCCC
DNA 2: TGGTGGCTACGACGGGATT
B20: UACGGGC (DNA:RNA)
RNA: B12 RNA with C25U, C26A, A27C, C29G, U31C
DNA 1: CAATCTGAATTCCGGTCTCCC
DNA 2: TGGTGGCTACGACGGGATT
B21: CCUCCCC (DNA:RNA)
RNA: B12 RNA with A27U, G28C, G30C, U31C
DNA 1: CAATCTGAATTCCGGTCTCCC
DNA 2: TGGTGGCTACGACGGGATT
B22: UGCAUUA (DNA:RNA)
RNA: B1 RNA with A26G, G27C, A29U, A30U
DNA 1: CAATCTGAATTCCGGTCTCCC
DNA 2: TGGTGGCTACGACGGGATT
B23: GAUUCUU (DNA:RNA)
RNA: B12 RNA with C25G, C26A, A27U, G28U, G30U
DNA 1: CAATCTGAATTCCGGTCTCCC
DNA 2: TGGTGGCTACGACGGGATT
B24: UAAGUCU (DNA:RNA)
RNA: B12 RNA with C25U, C26A, C29U, G30C
DNA 1: CAATCTGAATTCCGGTCTCCC
DNA 2: TGGTGGCTACGACGGGATT
B25: AUCACUU (DNA:RNA)
RNA: B12 RNA with C25A, C26U, A27C, G28A, G30U
DNA 1: CAATCTGAATTCCGGTCTCCC
DNA 2: TGGTGGCTACGACGGGATT
B26: CUCAGCG (DNA:RNA)
RNA: B9 RNA with G25C, C28A, U29G, C31G
DNA 1: CAATCTGAATTCCGGTCTCCC
DNA 2: TGGTGGCTACGACGGGATT
B27: GAAAACC (DNA:RNA)
RNA: B9 RNA with U26A, C27A, C28A, U29A
DNA 1: CAATCTGAATTCCGGTCTCCC
DNA 2: TGGTGGCTACGACGGGATT
B28: CGCACCG (DNA:RNA)
RNA: B12 RNA with C26G, A27C, G28A, G30C, U31G
DNA 1: CAATCTGAATTCCGGTCTCCC
DNA 2: TGGTGGCTACGACGGGATT
B29: AACGGUA (DNA:RNA)
RNA: B1 RNA with U25A, G27C, A28G, A29G, A30U
DNA 1: CAATCTGAATTCCGGTCTCCC
DNA 2: TGGTGGCTACGACGGGATT
B30: UCCAAAG (DNA:RNA)
RNA: B1 RNA with A26C, G27C, A31G
DNA 1: CAATCTGAATTCCGGTCTCCC
DNA 2: TGGTGGCTACGACGGGATT
B31: CUUAUGU (DNA:RNA)
RNA: B12 RNA with C26U, A27U, G28A, C29U
DNA 1: CAATCTGAATTCCGGTCTCCC
DNA 2: TGGTGGCTACGACGGGATT

Target: T1, RBFOX1 RRM RbFoxmut (Fox-RRM*)
Assay: EMSA; HiTS-Eq, 1 nM pool, 10 min; buffer printed only for the single-RNA assays: 10 mM Tris pH 7.5, 150 mM NaCl, 3.4 mM EDTA, 0.001% NP-40, 30 C
Conditions: tags: His6 N-terminal (pET28a); label: 5' 32P
Method in brief: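 Purified wild-type or mutant RbFox RRM at increasing concentrations was equilibrated with 1 nM of 5′-radiolabelled RNA carrying 7 randomized nucleotides for 10 min in 50 µL. Unbound RNA was separated by 8% native PAGE and sequenced. Relative association constants came from read-count changes of each RNA species compared with the control reaction, normalised to the cognate motif.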

First: B1
Second: B2
The binding signal of the first is higher: 0.0641 KA relative to UGCAUGU for the first, 0.0442 KA relative to UGCAUGU for the second.

Compared with B3, B4 is higher in binding signal: 0.0787 KA relative to UGCAUGU for the first, 0.119 KA relative to UGCAUGU for the second.

First: B5
Second: B6
The binding signal of the first is lower: 0.0788 KA relative to UGCAUGU for the first, 0.122 KA relative to UGCAUGU for the second.

First: B7
Second: B8
The binding signal of the first is lower: 0.0903 KA relative to UGCAUGU for the first, 1.39 KA relative to UGCAUGU for the second.

First: B9
Second: B10
The binding signal of the first is lower: 0.0486 KA relative to UGCAUGU for the first, 0.0892 KA relative to UGCAUGU for the second.

First: B11
Second: B12
The binding signal of the first is lower: 0.0989 KA relative to UGCAUGU for the first, 0.127 KA relative to UGCAUGU for the second.

First: B13
Second: B14
The binding signal of the first is higher: 0.132 KA relative to UGCAUGU for the first, 0.104 KA relative to UGCAUGU for the second.

Compared with B15, B16 is lower in binding signal: 0.0981 KA relative to UGCAUGU for the first, 0.0627 KA relative to UGCAUGU for the second.

Compared with B17, B18 is higher in binding signal: 0.0532 KA relative to UGCAUGU for the first, 0.166 KA relative to UGCAUGU for the second.

Compared with B19, B20 is lower in binding signal: 0.0859 KA relative to UGCAUGU for the first, 0.0613 KA relative to UGCAUGU for the second.

First: B21
Second: B22
The binding signal of the first is lower: 0.057 KA relative to UGCAUGU for the first, 0.163 KA relative to UGCAUGU for the second.

First: B23
Second: B24
The binding signal of the first is higher: 0.0806 KA relative to UGCAUGU for the first, 0.0462 KA relative to UGCAUGU for the second.

Compared with B25, B26 is higher in binding signal: 0.0896 KA relative to UGCAUGU for the first, 0.113 KA relative to UGCAUGU for the second.

First: B27
Second: B28
The binding signal of the first is lower: 0.0367 KA relative to UGCAUGU for the first, 0.17 KA relative to UGCAUGU for the second.

First: B29
Second: B30
The binding signal of the first is higher: 0.139 KA relative to UGCAUGU for the first, 0.0839 KA relative to UGCAUGU for the second.

For B31, the binding signal was 0.158 KA relative to UGCAUGU.
